Source: paper PMC4336329 (PLoS ONE, 2015)
Out of some 310,000 compounds screened, about 14,000 (4.5%) showed an effect of 50% or more. The effect is printed as a negative number. This is one part of the list.

target: human ether-à-go-go-related gene (hERG) potassium channel (human, UniProt Q12809); assay: primary screen, population patch clamp on CHO cells stably expressing hERG
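Further: peak tail current of the secondary pulse compared with the same well before compound.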

Chain of human ether-à-go-go-related gene (hERG) potassium channel (Q12809 whole entry, looked up): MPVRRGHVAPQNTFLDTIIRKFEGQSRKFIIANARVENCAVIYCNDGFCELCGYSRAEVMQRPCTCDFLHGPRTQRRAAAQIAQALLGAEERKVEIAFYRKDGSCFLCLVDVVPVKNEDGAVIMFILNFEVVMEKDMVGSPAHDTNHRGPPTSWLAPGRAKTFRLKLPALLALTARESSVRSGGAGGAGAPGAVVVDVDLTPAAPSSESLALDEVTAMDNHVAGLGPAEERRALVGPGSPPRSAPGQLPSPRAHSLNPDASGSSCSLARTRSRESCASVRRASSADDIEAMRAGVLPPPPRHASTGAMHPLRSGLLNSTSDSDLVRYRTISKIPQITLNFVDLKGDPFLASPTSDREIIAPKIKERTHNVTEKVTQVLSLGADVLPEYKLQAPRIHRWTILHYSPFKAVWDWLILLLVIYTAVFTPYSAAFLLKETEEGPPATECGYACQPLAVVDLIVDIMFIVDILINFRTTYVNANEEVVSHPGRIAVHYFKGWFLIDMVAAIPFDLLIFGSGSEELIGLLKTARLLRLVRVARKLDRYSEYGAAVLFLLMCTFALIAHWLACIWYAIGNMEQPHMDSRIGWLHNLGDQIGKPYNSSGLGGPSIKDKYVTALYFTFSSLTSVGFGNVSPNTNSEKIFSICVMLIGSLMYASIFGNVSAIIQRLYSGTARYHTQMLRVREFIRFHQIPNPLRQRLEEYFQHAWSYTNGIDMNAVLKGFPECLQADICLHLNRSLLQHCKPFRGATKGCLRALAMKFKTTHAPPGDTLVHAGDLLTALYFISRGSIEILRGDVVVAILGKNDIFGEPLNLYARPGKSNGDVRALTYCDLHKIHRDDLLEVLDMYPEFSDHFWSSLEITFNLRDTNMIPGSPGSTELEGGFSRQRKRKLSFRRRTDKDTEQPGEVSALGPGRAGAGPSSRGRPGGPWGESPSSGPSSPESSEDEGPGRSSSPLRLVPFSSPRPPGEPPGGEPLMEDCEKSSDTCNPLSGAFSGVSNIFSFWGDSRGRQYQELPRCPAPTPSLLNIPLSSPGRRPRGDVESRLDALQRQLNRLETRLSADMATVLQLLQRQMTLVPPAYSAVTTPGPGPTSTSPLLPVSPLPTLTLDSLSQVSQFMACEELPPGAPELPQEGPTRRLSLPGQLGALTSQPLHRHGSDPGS

SMILES	hERG current change (%, negative = inhibition) at 10uM [%]
CCOc1ccc(/C=C(\C)C(=O)c2c(C)cc(C)[nH]c2=O)cc1	5.24
O=C(CSc1ncccc1C(=O)O)c1ccccc1F	14.8
COc1ccccc1OCC(=O)Nc1ccccc1C(=O)Nc1cccc(C(=O)O)c1	16.3
CCC1(CC)Cc2ccccc2-c2nc(CCl)[nH]c(=O)c21	8.48
CCCCn1c(N)c(N(CC)C(=O)CN2C(=O)NC(C)(c3ccccc3)C2=O)c(=O)[nH]c1=O (stereo not shown)	12.6
Cc1cc2ncn(CCOc3ccccc3)c2cc1C	0.668
COc1ccc(-c2[nH]n(-c3ccc([N+](=O)[O-])cc3)c(=O)c2C=NCCN2CCNCC2)cc1	-4.9
CCNc1oc(/C=C/c2ccc(OCC)cc2)nc1C#N	9.38
Cc1cccc(OCC(=O)NNC(=O)c2ccc([N+](=O)[O-])cc2)c1	1.5
CSc1ccccc1OCc1cc(C(=O)N2CCN(C)C(c3ccccc3)C2)no1 (stereo not shown)	-5.98
Cn1c(=O)c2c(nc(-n3ccnc3)n2Cc2ccc([N+](=O)[O-])cc2)n(C)c1=O	-43.7
COc1cc(OC)cc(C(=O)Nc2ccc3c(c2)OCCO3)c1	-5.73
COC(=O)c1cc(C)ccc1OCc1ccc([N+](=O)[O-])cc1	4.13
CCCC(=O)NC(c1ccco1)c1cc(Cl)c2cccnc2c1O (stereo not shown)	17.8
CCOc1ccc(N(CC(=O)Nc2ccccc2OCC)S(=O)(=O)c2c(C)noc2C)cc1	14.3
CCOc1ccc(NS(=O)(=O)c2cc3c4c(c2)CCN4C(=O)CC3)cc1	-20.8
Cc1ccc(C(=O)c2ccccc2C(=O)OCC(=O)NC(C)(C)C)cc1	-0.829
COCCOC(=O)c1c(C)oc2ccc(OC(=O)N(C)C)cc12	9.21
COc1ccc(NC(=O)CC23CC4CC(CC(Br)(C4)C2)C3)c(OC)c1	-14.1
COc1ccc(NC(=O)CCC(=O)c2cccs2)cc1Cl	17.6
O=C(c1cc(COc2ccc(F)cc2F)on1)N1CCN(C2CCCC2)C(=O)C1	-25.8
CCOc1ccc(NC(=O)CN(c2ccc(C)cc2)S(=O)(=O)c2c(C)nn(C)c2C)cc1	4.36

SMILES	hERG current change (%, negative = inhibition) at 10uM [%]
O=C(CN1CCCCC1)Nc1nc(-c2ccccc2)cs1	-35
COc1ccc(C2=NCC(=S)Nc3ccc(Cl)cc32)cc1Cl	2.73
CCN(CC)CCNC(=O)c1ccc(NC(=O)c2cc(-c3ccco3)nc3ccccc23)cc1	-30.2
Cc1nc2ncnn2c(C)c1Cc1ccc(Cl)cc1F	5.1
N#Cc1cnn2c1nc(N1CCCCC1)c1ccccc12	8.49
CC(=O)N1CCN(c2ccc(NCc3ccc(F)cc3)cc2)CC1	5.37
Nc1c(C(=O)NCc2ccccc2)c2nc3ccccc3nc2n1CCCN1CCOCC1	-1.02
O=C(CCNC(=O)c1ccc(Cl)cc1)NCC(c1ccco1)N1CCCCC1 (stereo not shown)	-31
COc1ccc(C2=NN(c3ccccc3)C(c3cccs3)C2)cc1 (stereo not shown)	7.46
Cc1ccc(CNC(=O)c2ccc(N(C)S(=O)(=O)c3ccccc3)cc2)cc1	-11
COC(=O)[C@@H](NC(=O)NCc1ccccc1F)C(C)C	16.1
COC(=O)c1ccc(C23CC4(C2)[C@H](CN(Cc2ccc(-c5ccccc5)cc2)[C@@H]4c2ccccc2)C3c2ccccc2)cc1 (stereo partly shown)	13.3
CCCCc1nc(Cl)c(C#N)c2c1CCC2	6.53
O=C(Nc1ccc(F)cc1)c1cc(S(=O)(=O)Nc2ccc(F)cc2)cs1	-3.73
Cc1cc(C)c(C#N)c(N2CCN(c3ccc(F)cc3)CC2)n1	10.3
CCOC(=O)c1sc(NC(=O)c2ccc3nc[nH]c3c2)nc1C	8.25
CCCCc1cc(=O)oc2cc(C)cc(O)c12	-17.2
COc1ccc(CNC(=O)C2CCC(CNS(=O)(=O)c3cccc4nsnc34)CC2)cc1 (stereo not shown)	9.06
Cc1ccc2c(c1)cc(CN(C(=O)N1CCOCC1)C1CCCC1)c1nnnn12	-9.24
Nc1c(C(=O)c2ccco2)oc2ccccc12	21.5
CC1(C)Cc2cccc(OCC(=O)OCC(=O)Nc3ccc(C(N)=O)cc3)c2O1	-15.6
O=C(Nc1cccc(F)c1)c1ccc(CSc2ccccc2)o1	5.17

SMILES	hERG current change (%, negative = inhibition) at 10uM [%]
CC1CCCCN1C(=O)c1cc2ccccc2cc1O (stereo not shown)	10.9
CCn1nccc1C(=O)NC1=C(C#N)CCC1	13.2
O=C(CCCn1nnc2ccccc2c1=O)N[C@H](C(=O)O)c1ccccc1	5.81
Cc1ccc(NC(=O)C2(c3ccccc3)CCCC2)nc1	8.18
O=C(Cn1cc(C(F)(F)F)cc(Cl)c1=O)NCC1COc2ccccc2O1 (stereo not shown)	5.57
O=C(Nc1ccccn1)c1ccc2c(=O)n3c(nc2c1)CCCCC3	-47.2
COc1ccccc1OCCNC(=O)c1cc(C2CC2)nc2c1cnn2C(C)C	-6.06
Cc1c(OC(=O)c2ccc([N+](=O)[O-])cc2)c2c(c[n+]1C)COC(C)(C)OC2.[I-]	9.15
NC(=O)C1CCN(CC(=O)Nc2ccccc2N2CCOCC2)CC1	3.15
C=CCN(C)NC(=S)Nc1ccccc1	21.5
NC(=O)c1c(N)sc2c1CCCCC2	13.1
CC(C)C1Cc2c(C#N)c(N)n(C)c(=S)c2CO1 (stereo not shown)	-28.4
Cc1nn(-c2cc(C(F)(F)F)ccc2Cl)c2nc(C(F)(F)F)[nH]c(=O)c12	18
Cc1c(NC(=O)COC(=O)CSc2ccc(C(N)=O)cc2[N+](=O)[O-])c(=O)n(-c2ccccc2)n1C	23.1
CCN(CC)C(=O)c1[nH]cnc1C(=O)Nc1ccccc1	-6.51
CCN1C(=NCCc2cccnc2)N[C@@H](c2ccccc2)C(C(=O)OC)=C1C	-51.2
O=C(NCc1ccc2c(c1)OCO2)Nc1ccc2nsnc2c1	11.6
O=C(NCc1nnc2c(C(F)(F)F)cc(Cl)cn12)c1cccnc1	24.3
COc1ccc(-n2c(O)c(C=NCc3ccccn3)c3ccccc3c2=O)c(OC)c1	9.68
Cc1ccc(CN2CCNC(=O)C2CC(=O)N(C)C2CCCCC2)o1 (stereo not shown)	1.35
O=C(NCc1cccs1)C1CCC(CNS(=O)(=O)c2ccc(Br)s2)CC1 (stereo not shown)	-4.63
COc1ccc(S(=O)(=O)NC2CC(=O)N(c3ccccc3)C2)cc1C (stereo not shown)	-4.93

SMILES	hERG current change (%, negative = inhibition) at 10uM [%]
CCn1c(Sc2ccc(N)cc2Cl)nc2ccccc21	2.83
Clc1ccc(-c2nnc(C3CC3)o2)cc1	-4.48
Cc1noc2ncnc(N3CCN(c4ccc(F)cc4)CC3)c12	-38.3
O=C(NCc1ccc2c(c1)OCO2)C1CCCN1C(=O)Nc1ccc(F)cc1 (stereo not shown)	-30.8
CCC(CC)NC(=O)Cc1ccc(S(=O)(=O)N2CCOCC2)s1	3.03
CCC(CC)NC(=O)CO/N=C/c1ccccc1OC(F)F	-13.3
CCOc1ccc(NC(=S)NN(C)C(=S)Nc2ccc(OCC)cc2)cc1	5.64
CCOc1ccc(-n2c(C)nc3cc(C(=O)NCC4CCCO4)ccc32)cc1 (stereo not shown)	-15.2
Cc1oc2c(c1C(=O)Nc1cccc3ccccc13)CCCC2	-4.55
CC1=C(C(N)=O)C(c2cccnc2)n2nc(-c3cccc(C)c3)nc2N1 (stereo not shown)	0.347
O=C(Nc1ccccc1-c1ccccc1)NC1CCN(CC(=O)N2CCOCC2)CC1	8.25
Cc1[nH]c(=O)[nH]c(=O)c1CSCC(=O)OCC(=O)c1ccc(Br)cc1	6.18
Cc1c(O)ccc(C(=O)CN2CCN(c3ccccc3)CC2)c1O	-14
Cc1nnc(NC(=O)C2C3C=CC(O3)C2C(=O)O)s1 (stereo not shown)	0.943
CC(NC(=O)C1CCC(CNc2c(N3CCOCC3)c(=O)c2=O)CC1)c1ccccc1 (stereo not shown)	7.56
CC(NC(=O)C12CC3CC(C)(CC(C)(C3)C1)C2)c1ccncc1 (stereo not shown)	-9.96
CCC[n+]1c(C)sc2c(OC)ccc(OC)c21.[I-]	8.21
O=c1c2ccccc2c(C=Nc2ccc(S(=O)(=O)N3CCCCC3)cc2)c(O)n1-c1ccc(Cl)cn1	17.5
CCc1nnc(NC(=O)CSc2nnc(-c3ccoc3C)n2-c2ccc(C)cc2)s1	-26.4
Cc1ccc(N2C(=O)CN(Cc3ccccc3)C2=S)cc1C	9.73
CC(=O)OCCn1c2nc(=O)[nH]c(=O)c-2nc2cc(C)c(C)cc21	16.3
Cc1ccc(S(=O)(=O)N2CCCOC2CNC(=O)C(=O)NCc2cccs2)cc1 (stereo not shown)	-6.69
